# From the supplement of paper PMC8728848
# The other results are listed elsewhere or left out.
# Key:
# Assay in all cases: glycan array binding signal (z-score within array); higher = stronger binding
# Settings in all cases: glycan notation: IUPAC condensed, linker removed
# [1] = molecular target: Gal(b1-3)GlcNAc(b1-2)Man(a1-3)[Gal(b1-3)GlcNAc(b1-2)Man(a1-6)]Man(b1-4)GlcNAc(b1-4)[Fuc(a1-6)]GlcNAc
# Method in brief: (§1)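 The Consortium for Functional Glycomics database supplied 3228 glycan arrays, of which those lacking an available protein sequence were dropped. The binding signal, a within-array Z-score, was averaged across arrays of the same protein sequence and across linkers. Negative scores can be read as non-binding.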
# [2] = molecular target: Gal(b1-3)GlcNAc(b1-2)Man(a1-3)[GlcNAc(b1-4)][Gal(b1-3)GlcNAc(b1-2)Man(a1-6)]Man(b1-4)GlcNAc(b1-4)GlcNAc
# Method in brief: as §1
# [3] = molecular target: Gal(b1-3)GlcNAc(b1-2)[Gal(b1-3)GlcNAc(b1-6)]Man(a1-6)[Gal(b1-3)GlcNAc(b1-2)Man(a1-3)]Man(b1-4)GlcNAc(b1-4)GlcNAc
# Method in brief: as §1
# [4] = molecular target: Gal(b1-3)GlcNAc(b1-3)Gal(b1-3)GlcNAc
# Method in brief: as §1
# [5] = molecular target: Gal(b1-3)GlcNAc(b1-3)Gal(b1-4)Glc
# Method in brief: as §1
# [6] = molecular target: Gal(b1-3)GlcNAc(b1-3)Gal(b1-4)GlcNAc
# Method in brief: as §1
# [7] = molecular target: Gal(b1-3)GlcNAc(b1-3)Gal(b1-4)GlcNAc(b1-2)Man(a1-3)[Gal(b1-3)GlcNAc(b1-3)Gal(b1-4)GlcNAc(b1-2)Man(a1-6)]Man(b1-4)GlcNAc(b1-4)GlcNAc
# Method in brief: as §1
# [8] = molecular target: Gal(b1-3)GlcNAc(b1-3)Gal(b1-4)GlcNAc(b1-2)[Gal(b1-3)GlcNAc(b1-3)Gal(b1-4)GlcNAc(b1-6)]Man(a1-6)[Gal(b1-3)GlcNAc(b1-3)Gal(b1-4)GlcNAc(b1-2)Man(a1-3)]Man(b1-4)GlcNAc(b1-4)[Fuc(a1-6)]GlcNAc
# Method in brief: as §1
# [9] = molecular target: Gal(b1-3)GlcNAc(b1-3)Gal(b1-4)GlcNAc(b1-3)Gal(b1-4)GlcNAc(b1-2)[Gal(b1-3)GlcNAc(b1-3)Gal(b1-4)GlcNAc(b1-3)Gal(b1-4)GlcNAc(b1-6)]Man(a1-6)[Gal(b1-3)GlcNAc(b1-3)Gal(b1-4)GlcNAc(b1-3)Gal(b1-4)GlcNAc(b1-2)Man(a1-3)]Man(b1-4)GlcNAc(b1-4)[Fuc(a1-6)]GlcNAc
# Method in brief: as §1
# [10] = molecular target: Gal(b1-3)GlcNAc(b1-3)Gal(b1-4)GlcNAc(b1-6)[Gal(b1-3)GlcNAc(b1-3)]Gal(b1-4)Glc
# Method in brief: as §1
# [11] = molecular target: Gal(b1-3)GlcNAc(b1-3)Gal(b1-4)[Fuc(a1-3)]GlcNAc
# Method in brief: as §1
# [12] = molecular target: Gal(b1-3)GlcNAc(b1-3)Gal(b1-4)[Fuc(a1-3)]GlcNAc(b1-6)[Gal(b1-3)GlcNAc(b1-3)]Gal(b1-4)Glc
# Method in brief: as §1
# [13] = molecular target: Gal(b1-3)GlcNAc(b1-3)GalNAc
# Method in brief: as §1
# [14] = molecular target: Gal(b1-3)GlcNAc(b1-6)Gal(b1-4)GlcNAc
# Method in brief: as §1
# [15] = molecular target: Gal(b1-3)GlcNAc(b1-6)GalNAc
# Method in brief: as §1
# [16] = molecular target: Gal(b1-3)GlcNAc(b1-6)[Gal(b1-3)]GalNAc
# Method in brief: as §1
# Gal(b1-3)GlcNAc6S = molecular target: Gal(b1-3)GlcNAc6S
# Method in brief: as §1
# [17] = molecular target: Gal(b1-3)[Fuc(a1-4)]GlcNAc
# Method in brief: as §1
# [18] = molecular target: Gal(b1-3)[Fuc(a1-4)]GlcNAc(b1-2)Man
# Method in brief: as §1
# [19] = molecular target: Gal(b1-3)[Fuc(a1-4)]GlcNAc(b1-2)Man(a1-3)[Gal(b1-3)[Fuc(a1-4)]GlcNAc(b1-2)Man(a1-6)]Man(b1-4)GlcNAc(b1-4)[Fuc(a1-6)]GlcNAc
# Method in brief: as §1
# [20] = molecular target: Gal(b1-3)[Fuc(a1-4)]GlcNAc(b1-3)Gal(b1-3)[Fuc(a1-4)]GlcNAc
# Method in brief: as §1
# [21] = molecular target: Gal(b1-3)[Fuc(a1-4)]GlcNAc(b1-3)Gal(b1-4)[Fuc(a1-3)]GlcNAc
# Method in brief: as §1
# [22] = molecular target: Gal(b1-3)[Fuc(a1-4)]GlcNAc(b1-6)GalNAc
# Method in brief: as §1
# [23] = molecular target: Gal(b1-3)[GlcNAc(b1-6)]GalNAc
# Method in brief: as §1
# [24] = molecular target: Gal(b1-3)[Neu5Ac(a2-6)]GalNAc
# Method in brief: as §1
# [25] = molecular target: Gal(b1-3)[Neu5Ac(a2-6)]GlcNAc(b1-4)Gal(b1-4)Glc
# Method in brief: as §1
# [26] = molecular target: Gal(b1-3)[Neu5Ac(b2-6)]GalNAc
# Method in brief: as §1
# Gal(b1-4)Gal = molecular target: Gal(b1-4)Gal
# Method in brief: as §1
# [27] = molecular target: Gal(b1-4)GalNAc(a1-3)[Fuc(a1-2)]Gal(b1-4)GlcNAc
# Method in brief: as §1
# [28] = molecular target: Gal(b1-4)GalNAc(b1-3)[Fuc(a1-2)]Gal(b1-4)GlcNAc
# Method in brief: as §1
# Gal(b1-4)Glc = molecular target: Gal(b1-4)Glc
# Method in brief: as §1
# Gal(b1-4)Glc6S = molecular target: Gal(b1-4)Glc6S
# Method in brief: as §1
# Gal(b1-4)GlcNAc = molecular target: Gal(b1-4)GlcNAc
# Method in brief: as §1
# [29] = molecular target: Gal(b1-4)GlcNAc(a1-6)Gal(b1-4)GlcNAc
# Method in brief: as §1
# Gal(b1-4)GlcNAc(b1-2)Man = molecular target: Gal(b1-4)GlcNAc(b1-2)Man
# Method in brief: as §1
# [30] = molecular target: Gal(b1-4)GlcNAc(b1-2)Man(a1-3)Man(b1-4)GlcNAc(b1-4)GlcNAc
# Method in brief: as §1
# [31] = molecular target: Gal(b1-4)GlcNAc(b1-2)Man(a1-3)[Gal(b1-4)GlcNAc(b1-2)Man(a1-6)]Man(b1-4)GlcNAc(b1-4)GlcNAc
# Method in brief: as §1
# [32] = molecular target: Gal(b1-4)GlcNAc(b1-2)Man(a1-3)[Gal(b1-4)GlcNAc(b1-2)Man(a1-6)]Man(b1-4)GlcNAc(b1-4)[Fuc(a1-6)]GlcNAc
# Method in brief: as §1
# [33] = molecular target: Gal(b1-4)GlcNAc(b1-2)Man(a1-3)[Gal(b1-4)GlcNAc(b1-2)Man(a1-6)][Gal(b1-4)GlcNAc(b1-4)]Man(b1-4)GlcNAc(b1-4)[Fuc(a1-6)]GlcNAc
# Method in brief: as §1
# [34] = molecular target: Gal(b1-4)GlcNAc(b1-2)Man(a1-3)[Gal(b1-4)GlcNAc(b1-2)Man(a1-6)][GlcNAc(b1-4)]Man(b1-4)GlcNAc(b1-4)[Fuc(a1-6)]GlcNAc
# Method in brief: as §1
# [35] = molecular target: Gal(b1-4)GlcNAc(b1-2)Man(a1-3)[GlcNAc(b1-2)Man(a1-6)]Man(b1-4)GlcNAc(b1-4)GlcNAc
# Method in brief: as §1
# [36] = molecular target: Gal(b1-4)GlcNAc(b1-2)Man(a1-3)[GlcNAc(b1-4)][Gal(b1-4)GlcNAc(b1-2)Man(a1-6)]Man(b1-4)GlcNAc(b1-4)GlcNAc
# Method in brief: as §1
# [37] = molecular target: Gal(b1-4)GlcNAc(b1-2)Man(a1-3)[Man(a1-6)]Man(b1-4)GlcNAc(b1-4)GlcNAc
# Method in brief: as §1
# [38] = molecular target: Gal(b1-4)GlcNAc(b1-2)Man(a1-6)Man(b1-4)GlcNAc(b1-4)GlcNAc
# Method in brief: as §1
# [39] = molecular target: Gal(b1-4)GlcNAc(b1-2)Man(a1-6)[GlcNAc(b1-2)Man(a1-3)]Man(b1-4)GlcNAc(b1-4)GlcNAc
# Method in brief: as §1
binder,measurement,setting,value
OGAN (protein) MVQKESQATLEERESELSSNPAASAGASLEPPAAPAPGEDNPAGAGGAAVAGAAGGARRFLCGVVEGFYGRPWVMEQRKELFRRLQKWELNTYLYAPKDDYKHRMFWREMYSVEEAEQLMTLISAAREYEIEFIYAISPGLDITFSNPKEVSTLKRKLDQVSQFGCRSFALLFNDIDHNMCAADKEVFSSFAHAQVSITNEIYQYLGEPETFLFCPTEYCGTFCYPNVSQSPYLRTVGEKLLPGIEVLWTGPKVVSKEIPVESIEEVSKIIKRAPVIWDNIHANDYDQKRLFLGPYKGRSTELIPRLKGVLTNPNCEFEANYVAIHTLATWYKSNMNGVRKDVVMTDSEDSTVSIQIKLENEGSDEDIETDVLYSPQMALKLALTEWLQEFGVPHQY,glycan array binding signal (z-score),[1],-0.064
same,glycan array binding signal (z-score),[2],-0.03
same,glycan array binding signal (z-score),[3],-0.047
same,glycan array binding signal (z-score),[4],-0.055
same,glycan array binding signal (z-score),[5],-0.012
same,glycan array binding signal (z-score),[6],-0.064
same,glycan array binding signal (z-score),[7],-0.022
same,glycan array binding signal (z-score),[8],0.166
same,glycan array binding signal (z-score),[9],-0.005
same,glycan array binding signal (z-score),[10],-0.074
same,glycan array binding signal (z-score),[11],-0.062
same,glycan array binding signal (z-score),[12],-0.066
same,glycan array binding signal (z-score),[13],-0.057
same,glycan array binding signal (z-score),[14],-0.078
same,glycan array binding signal (z-score),[15],-0.071
same,glycan array binding signal (z-score),[16],-0.041
same,glycan array binding signal (z-score),Gal(b1-3)GlcNAc6S,-0.082
same,glycan array binding signal (z-score),[17],-0.05
same,glycan array binding signal (z-score),[18],-0.036
same,glycan array binding signal (z-score),[19],-0.008
same,glycan array binding signal (z-score),[20],-0.044
same,glycan array binding signal (z-score),[21],-0.06
same,glycan array binding signal (z-score),[22],-0.029
same,glycan array binding signal (z-score),[23],-0.065
same,glycan array binding signal (z-score),[24],-0.047
same,glycan array binding signal (z-score),[25],-0.068
same,glycan array binding signal (z-score),[26],-0.064
same,glycan array binding signal (z-score),Gal(b1-4)Gal,-0.085
same,glycan array binding signal (z-score),[27],-0.08
same,glycan array binding signal (z-score),[28],-0.063
same,glycan array binding signal (z-score),Gal(b1-4)Glc,-0.066
same,glycan array binding signal (z-score),Gal(b1-4)Glc6S,-0.034
same,glycan array binding signal (z-score),Gal(b1-4)GlcNAc,-0.07
same,glycan array binding signal (z-score),[29],-0.062
same,glycan array binding signal (z-score),Gal(b1-4)GlcNAc(b1-2)Man,-0.044
same,glycan array binding signal (z-score),[30],-0.067
same,glycan array binding signal (z-score),[31],-0.076
same,glycan array binding signal (z-score),[32],-0.068
same,glycan array binding signal (z-score),[33],-0.086
same,glycan array binding signal (z-score),[34],-0.102
same,glycan array binding signal (z-score),[35],-0.059
same,glycan array binding signal (z-score),[36],-0.064
same,glycan array binding signal (z-score),[37],-0.087
same,glycan array binding signal (z-score),[38],-0.067
same,glycan array binding signal (z-score),[39],-0.079
